In one series the target is T1, Cynomolgus T cells (CD3) (Macaca fascicularis, UniProt Q95LI5+Q95LI8).
T1 construct: cynomolgus monkey cells expressing cynomolgus CD3; endogenous in cells; host or cells: primary cynomolgus T cells
As to the kind of experiment: FACS binding titration on cynomolgus T cells. The settings on record: Table 7B experiment. The text has this:
(§1) B. In separate experiments with analogous conditions to that described above, flow cytometric analysis (or FACS) was utilized to determine binding of select bispecific antibodies to Jurkat cells, PEO-1, OVCAR3-Luc and cynomolgus T cells. For the titration analysis, serial dilution of selected MUC16×CD3 bispecific antibodies, a first isotype control antibody (a human chimeric IgG4 antibody that binds an irrelevant human antigen with no cross-reactivity to human or cynomolgus CD3) and a second isotype control antibody (a human chimeric IgG4 antibody that binds an irrelevant human antigen with no cross-reactivity to human MUC16), ranging from 66.6 nM to 0.001 nM.
(§2) For FACS analysis, cells were gated by forward scatter height vs. forward scatter area for single events selection, followed by side and forward scatters. The EC50 for cell binding titration was determined using PRISM™ software (GraphPad Software, Inc., La Jolla, Calif.). Values were calculated using 4-parameter non-linear regression analysis. (Liu, J., et al. 2005, Biotechnol Letters 27:1821-1827).
A general note: A flow cytometer gives signals particle by particle.

For series [1], the target named is T2, Jurkat cells (human CD3-expressing) (Homo sapiens, UniProt P04234+P07766).
T2 construct: endogenous in cells; host or cells: Jurkat
As to the kind of experiment: FACS binding titration on Jurkat cells. How it is done:
A. Briefly, flow cytometric analysis (i.e. fluorescence-activated cell sorting, or FACS) was utilized to determine binding of bispecific antibodies to Jurkat cells or cells expressing human MUC16, followed by detection with a phycoerythrin (PE)-labeled or APC-labeled anti-human IgG antibody. Briefly, 2×10^5 cells/well were incubated for 30 minutes at 4° C. with a serial dilution ranging from 1.33E-07M to 8.03E-12M of each test antibody or isotype control (antibody of same isotype that binds a different antigen with no cross-reactivity to MUC16 or CD3). After incubation, the cells were washed twice with cold PBS containing 1% filtered FBS and a PE-conjugated or APC-conjugated anti-human secondary antibody was added to the cells and incubated for an additional 30 minutes. Wells containing no antibody or secondary only were also used as controls. After incubation, cells were washed, re-suspended in 200 μL cold PBS containing 1% filtered FBS and analyzed by flow cytometry on a BD FACS Canto II.
as §1, §2

The target in series [2] is T3, soluble monomeric human MUC16 (hMUC16.mmh, last five SEA domains, SEQ ID: 1902) (Homo sapiens, UniProt Q8WXI7).
T3 construct: mmh (myc-myc-hexahistidine)
Description: Surface plasmon resonance (BIACORE) binding to hMUC16 fragment at 25° C.

The target of series [3] is T4, PC3/MUC16 short (nub portion of MUC16, amino acids 13,810-14,507) (Homo sapiens, UniProt Q8WXI7).
T4 construct: expressed in transfected cells; host or cells: PC3/ATCC (prostate cancer line)
T4 sequence (Q8WXI7 13810-14507 limits assumed): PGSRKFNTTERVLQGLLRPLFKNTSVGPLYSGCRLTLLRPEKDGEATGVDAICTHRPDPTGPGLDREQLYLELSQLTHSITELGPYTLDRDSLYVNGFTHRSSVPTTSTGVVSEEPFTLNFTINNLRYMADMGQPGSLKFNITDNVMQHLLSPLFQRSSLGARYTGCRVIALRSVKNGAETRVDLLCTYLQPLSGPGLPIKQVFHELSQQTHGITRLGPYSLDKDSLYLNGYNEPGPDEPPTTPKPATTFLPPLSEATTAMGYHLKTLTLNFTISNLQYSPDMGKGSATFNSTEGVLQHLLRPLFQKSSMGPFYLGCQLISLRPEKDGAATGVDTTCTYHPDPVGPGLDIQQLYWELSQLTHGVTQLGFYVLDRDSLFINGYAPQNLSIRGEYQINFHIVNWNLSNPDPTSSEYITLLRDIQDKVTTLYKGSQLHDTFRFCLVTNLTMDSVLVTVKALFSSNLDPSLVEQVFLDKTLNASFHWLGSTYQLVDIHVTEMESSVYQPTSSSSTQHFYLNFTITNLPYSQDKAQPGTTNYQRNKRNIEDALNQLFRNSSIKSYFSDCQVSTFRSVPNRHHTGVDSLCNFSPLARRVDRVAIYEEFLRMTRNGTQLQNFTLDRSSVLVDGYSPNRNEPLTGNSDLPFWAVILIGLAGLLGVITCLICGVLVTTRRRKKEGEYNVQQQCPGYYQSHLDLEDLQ
As to the kind of experiment: IHC staining of FFPE cell pellets: PC3/MUC16 short. It is filed as binding.

The conditions of series [4]: mouse, in vivo.
For a further series, the system named is OVCAR-3/Luc. Description: OVCAR-3 model study 1 (xenogenic, BLI). The settings on record: Day 6, before dosing started (baseline). It is filed as in vivo, mouse (NSG). As to the method: In further experiments, the in vivo efficacy of an anti-MUC16/anti-CD3 bispecific antibody was evaluated in xenogenic and syngeneic tumor models. For the first xenogenic model, NSG mice were injected intraperitoneally (IP) with OVCAR-3/Luc cells previously passaged in vivo (Day 0) eleven days after engraftment with human PBMCs. Mice were treated IP with 0.01, 0.1, or 0.5 mg/kg BSMUC16/CD3-001, or administered 0.5 mg/kg non-binding control or CD3-binding control on Days 6, 10, 13, 16, and 21. Tumor burden was assessed by BLI on Days 6, 14, and 20 post tumor implantation. […] For the second xenogenic model, NSG mice were injected with OVCAR-3/Luc cells previously passaged in vivo (Day 0) thirteen days after engraftment with human PBMCs and a second batch of PBMCs were transferred on Day 4. Mice were treated intravenously (IV) with 0.1, 0.5, 1, or 5 mg/kg BSMUC16/CD3-005 or administered 5 mg/kg non-binding control or CD3-binding control on Days 5, 8, 12, 15, 19 and 22. Tumor burden was assessed by BLI on Days 4, 11, 18 and 25. […] To examine efficacy in an immune-competent model, the murine CD3 gene was replaced with human CD3 and a portion of the mouse MUC16 gene was replaced with the human sequence. […]
Ascites cells from the OVCAR-3/Luc cell line, previously passaged in vivo, were administered IP into the NSG mice previously engrafted with human PBMCs. BLI was measured as a read-out for tumor growth several days after OVCAR-3/Luc implantation and at multiple times during study. […]
Bioluminescence imaging was used to measure tumor burden. Mice were injected IP with 150 mg/kg (as determined by body weights at the start of the experiment) of the luciferase substrate D-luciferin suspended in PBS. […] Regions of interest were drawn around each tumor mass and photon intensities were recorded as p/s/cm^2/sr. […] Statistical significance for the BLI results was determined using an unpaired nonparametric Mann-Whitney t-test. Fold changes were calculated by the formula: (Day 20-Day 6)/Day 6 for study 1 and (Day 25-Day 4)/Day 4 for study 2.

The mark [5] stands for this setting: Human Fc anti-MUC16 antibodies (H1H), Table 5B.
Setting [6] is: Hybridoma anti-MUC16 antibodies (H1M, H2M, H3M), Table 5A.

T3 sequence (Q8WXI7 with tags, fused parts or gaps): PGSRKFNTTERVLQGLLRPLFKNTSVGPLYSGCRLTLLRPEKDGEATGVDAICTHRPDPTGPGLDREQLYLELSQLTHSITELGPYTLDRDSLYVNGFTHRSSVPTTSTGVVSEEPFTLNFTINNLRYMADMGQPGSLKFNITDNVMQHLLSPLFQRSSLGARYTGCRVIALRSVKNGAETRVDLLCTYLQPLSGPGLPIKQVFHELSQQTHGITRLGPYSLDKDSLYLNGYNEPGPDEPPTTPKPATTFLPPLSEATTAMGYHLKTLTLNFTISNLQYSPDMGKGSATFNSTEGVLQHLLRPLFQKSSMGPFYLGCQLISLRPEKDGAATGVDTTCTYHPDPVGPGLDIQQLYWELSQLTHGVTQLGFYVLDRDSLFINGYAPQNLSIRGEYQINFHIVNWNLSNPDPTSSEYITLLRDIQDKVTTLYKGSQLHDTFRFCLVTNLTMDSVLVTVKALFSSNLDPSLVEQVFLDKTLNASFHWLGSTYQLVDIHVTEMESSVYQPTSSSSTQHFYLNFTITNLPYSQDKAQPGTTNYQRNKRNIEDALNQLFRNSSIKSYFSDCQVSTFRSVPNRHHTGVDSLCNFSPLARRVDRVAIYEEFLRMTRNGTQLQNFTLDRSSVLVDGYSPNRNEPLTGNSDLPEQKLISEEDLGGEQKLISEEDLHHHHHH
T2 sequence (P07766 23-207): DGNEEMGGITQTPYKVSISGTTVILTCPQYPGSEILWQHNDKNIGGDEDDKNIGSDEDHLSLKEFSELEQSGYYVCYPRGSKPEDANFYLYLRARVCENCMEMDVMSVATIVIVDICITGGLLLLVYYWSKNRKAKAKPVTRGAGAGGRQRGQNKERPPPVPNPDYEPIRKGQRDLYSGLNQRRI
T2 sequence (P04234 22-171): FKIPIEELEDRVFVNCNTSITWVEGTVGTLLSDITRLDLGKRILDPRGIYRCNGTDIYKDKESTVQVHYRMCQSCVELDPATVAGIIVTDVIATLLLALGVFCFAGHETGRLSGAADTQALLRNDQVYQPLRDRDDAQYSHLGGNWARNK
T2 sequence (P09693 23-182 partner): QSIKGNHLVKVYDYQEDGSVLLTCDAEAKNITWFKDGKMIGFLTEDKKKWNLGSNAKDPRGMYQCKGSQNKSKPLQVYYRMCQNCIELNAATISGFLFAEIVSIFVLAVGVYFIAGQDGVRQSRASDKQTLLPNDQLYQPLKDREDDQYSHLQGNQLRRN
T2 sequence (P20963 22-164 partner): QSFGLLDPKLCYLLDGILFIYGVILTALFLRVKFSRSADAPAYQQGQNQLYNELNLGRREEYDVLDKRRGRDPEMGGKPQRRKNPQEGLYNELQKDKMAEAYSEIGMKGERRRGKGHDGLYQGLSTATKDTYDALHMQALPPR
T1 sequence (Q95LI5 22-198): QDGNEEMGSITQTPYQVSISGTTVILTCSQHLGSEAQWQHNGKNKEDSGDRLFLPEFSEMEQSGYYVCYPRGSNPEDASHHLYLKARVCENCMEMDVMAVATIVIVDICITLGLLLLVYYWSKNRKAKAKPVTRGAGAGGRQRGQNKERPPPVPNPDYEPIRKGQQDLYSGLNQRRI
T1 sequence (Q95LI8 22-171): as the sequence (P04234 22-171) above, with I5V, N15K, I20V, S32T, D33N, I34N, T64A, S74N, V83L, H141R counted along it

B1: BSMUC16/CD3-002: anti-MUC16×CD3 bispecific, IgG1 Fc; H1H8767P HCVR (SEQ 18), CD3-VH-G5 (SEQ 1762), common LCVR SEQ 26 (antibody, V domains shown)
VH 1: QVQLVESGGGLVKPGGSLRLSCAASGFTFSNYYMSWVRQAPGKGLEWISYISGRGSTIFYADSVKGRITISRDNAKNSLFLQMNSLRAEDTAVYFCVKDRGGYSPYWGQGTLVTVSS
VH 2: EVQLVESGGGLVQPGRSLRLSCAASGFTFDDYSMHWVRQAPGKGLEWVSGISWNSGSIGYADSVKGRFTISRDNAKNSLYLQMNSLRAEDTALYYCAKDGSGYGKFYYYGMDVWGQGTTVTVSS
VL: [… about 100 residues …]PITFGQGTRLEIK
As for B1, the “FACS binding titration EC50, Cynomolgus T cells” value with Cynomolgus T cells (CD3) is reported as “No Binding”. Moreover, the “FACS binding titration EC50, Jurkat” value in series [1] (Table 7A experiment) is listed as “Very weak”. The “binding to CD3-expressing cells (FACS)” value in series [1] (text summary of Tables 7A and 7B, human and monkey CD3-expressing cells) is given as “weak-to-no binding”.

B2: H1H8767P: anti-MUC16 antibody, human IgG1 Fc; HCVR/LCVR SEQ ID NOs: 18/26 (antibody, V domains shown)
VH: QVQLVESGGGLVKPGGSLRLSCAASGFTFSNYYMSWVRQAPGKGLEWISYISGRGSTIFYADSVKGRITISRDNAKNSLFLQMNSLRAEDTAVYFCVKDRGGYSPYWGQGTLVTVSS
VL: [… about 100 residues …]PITFGQGTRLEIK
In the case of B2, in series [2] (setting [5]), the ka is 117000 M⁻¹ s⁻¹ and the kd turned out to be 0.000418 s⁻¹.

B3: H2M7138N: anti-MUC16 hybridoma antibody, mIgG2; HCVR/LCVR SEQ ID NOs: 314/322; nub binder (antibody, V domains shown)
VH: QVQLVQSGAEVKKPGASVKVSCKASGYTFTSSDINWVRQATGQGLEWVGWMNPNYGYTGSARKFQDRVTMTRNTSLSTAYLELHSLRSEDTAVYYCARVTYCSSVTSCFRPFTYWGQGTLVTVSA
VL: [… about 100 residues …]PITFGQGTRLEIK
B3: in series [3], the “IHC binding to cells expressing the nub portion of MUC16 without the repeat regions (PC3/MUC16 short)” value is listed as “positive binding”. In series [2] (setting [6]), this molecule yielded a ka of 74100 M⁻¹ s⁻¹ and a kd of 9.25e-05 s⁻¹.

B4: BSMUC16/CD3-001: anti-MUC16×CD3 bispecific, IgG1 Fc; H1H8767P HCVR (SEQ 18), CD3-VH-G (SEQ 1730), common LCVR SEQ 26 (antibody, V domains shown)
VH 1: QVQLVESGGGLVKPGGSLRLSCAASGFTFSNYYMSWVRQAPGKGLEWISYISGRGSTIFYADSVKGRITISRDNAKNSLFLQMNSLRAEDTAVYFCVKDRGGYSPYWGQGTLVTVSS
VH 2: EVQLVESGGGLVQPGRSLRLSCAASGFTFDDYSMHWVRQAPGKGLEWVSGISWNSGSKGYADSVKGRFTISRDNAKNSLYLQMNSLRAEDTALYYCAKYGSGYGKFYHYGLDVWGQGTTVTVSS
VL: [… about 100 residues …]PITFGQGTRLEIK
For the molecule B4, the “Terminal antibody concentration, fold less than BSMUC16/CD3-005” value in series [4] is given as about 22 fold. Moreover, the figures for the “Avg Radiance 6 days post-implantation (median ± SEM)” value in the series on OVCAR-3/Luc (0.01 mg/kg group), with OVCAR-3/Luc (0.1 mg/kg group) and in the series with OVCAR-3/Luc (0.5 mg/kg group) were 8.77e+05 ± 7.91e+04 p/s/cm2^2/sr, 6.31e+05 ± 1.10e+05 p/s/cm2^2/sr and 7.64e+05 ± 1.19e+05 p/s/cm2^2/sr, respectively.

B5: H1H8790P: anti-MUC16 antibody, human IgG1 Fc; HCVR/LCVR SEQ ID NOs: 66/74 (antibody, V domains shown)
VH: EVQLVESGGGLVQPGGSLRLSCEASGFTFSNYAMSWVRQAPGKGLEWVSGMSGSGTYPYYADSVKGRFTISRDNSKNMLYLQMNSLRVKDTAVYYCAKDGVDTAMILDTFDLWGQGTMVTVSS
VL: [… about 100 residues …]
In series [2] (setting [5]), B5 had a ka of 101000 M⁻¹ s⁻¹ and a kd of 0.000761 s⁻¹.

(Values after patent US10941208B2, “Anti-MUC16 antibodies” (Regeneron Pharmaceuticals, Inc., priority 2016, dated 2021).)
